In all, about 420,000 compounds went through this assay and about 50,000 (12%) were called active. Inconclusive means that the source gave no clear call. Such entries were picked first, then a sample of the others. The call rests on the fitted dose curve; in most records, active means well fitted inhibition curve with a large enough effect; inconclusive means small, poorly fitted or top-dose-only effect; inactive means flat fitted curve, though single readings scatter. Potencies of inconclusive entries are left out as doubtful fits.
experiment: qHTS for Inhibitors of human tyrosyl-DNA phosphodiesterase 1 (TDP1): qHTS in cells in presence of CPT; conditions: chicken DT40 Tdp1-/-;hTDP1 cells + 20 nM CPT, ATP luminescence, 48 h; activity change, negative = growth inhibition: at 46.2 µM (top of the series) unless noted; further: nearly all actives have a fitted effect of over 55% in size
Procedure, shortened: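 Chicken DT40 Tdp1-/- cells complemented with human TDP1, 400 cells/well, exposed to compounds plus 20 nM camptothecin for at least 48 h at 37 C; viability read as ATP content by CellTiter-Glo luminescence.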
On the % scale 0 is the no-effect control and ±100 the full control effect; potency means the concentration at half of the fitted maximal effect; tags describe the fitted curve by direction and shape.

SMILES	Potency	activity change, negative = growth inhibition
Cc1nn(CCC#N)c(N)c1C1(O)C(=O)Nc2c(Cl)cc(Cl)cc21 (centres undefined)	active: 16.4 µM	–
Cc1nc(-c2ccccc2)sc1C1(C)CC(c2ccc([N+](=O)[O-])cc2)=NO1 (centres undefined)	inconclusive [inhibitor, single point]	–
COc1ccc(C(=O)COC(=O)C2CCN(c3ccc(C(F)(F)F)cn3)CC2)c(OC)c1	inconclusive [inhibitor, single point]	–
CSc1nc(N)nc2c1ncn2CC(=O)N1CCN(Cc2c(C)cc(C)cc2C)CC1	active: 1.84 µM	–
CCN(C)C1CN(Cc2cn(Cc3ccc(F)cc3)nn2)S(=O)(=O)C1 (centres undefined)	inactive	–
Cc1cc(OCc2cccc(S(=O)(=O)N3CCOCC3)c2)ccc1Cl	inconclusive [inhibitor, single point]	–
Cc1cc2c(ncn2C(C)C)c(NS(=O)(=O)c2ccc(F)cc2)c1C	inconclusive [inhibitor, single point]	–
CCCCNC(=S)N1CCC(Cc2ccccc2)CC1	inconclusive [inhibitor, single point]	–
COc1ccc(C(=O)C2CCCN(C(=O)C3=CCCC3)C2)c(C)c1 (centres undefined)	inconclusive [inhibitor, single point]	–
COc1ccc(C(O)c2nc(-c3cccc(C(F)(F)F)c3)cs2)cc1 (centres undefined)	active: 20.6 µM	–
CCOc1ccc(N2C(=O)CC(SC(=NC)Nc3cccc(OC)c3)C2=O)cc1 (centres undefined)	inconclusive [inhibitor, partial curve, poor fit]	–
Cc1ccc(C(=O)Nc2nc(-c3ccccc3)c(-c3ccccc3)o2)cc1	active: 20.6 µM	–
CCNc1nc(CC)nc2c1oc1ccccc12	inactive	–
COc1ccc(C)cc1NC(=S)N1CCN(c2ccccn2)CC1	inactive	–
C/C(=N\O)c1cc(Cl)ccc1O	inactive	–
COc1cccc(/C=N/NC(=O)c2cnccn2)c1O	inconclusive [inhibitor, single point]	–
COc1cc(-c2nnc(SCC(=O)NC(C)C)o2)cc(OC)c1OC	inactive	–
CCOc1ccc(CCNC(=O)C2Cc3ccccc3N2C(=O)CC)cc1OCC (centres undefined)	inconclusive [inhibitor, single point]	–
Cc1cc(C)c(C#N)c(Nc2ccc3c(c2)OCCO3)n1	inactive	–
Cc1ccc(-c2cc(C(=O)N3CCN(S(=O)(=O)c4ccc(Br)s4)CC3)[nH]n2)c(C)c1	active: 11.6 µM	–
CC(=O)c1ccc(NC(=O)CSc2ccc3nc(-c4ccccc4)cn3n2)cc1	inconclusive [inhibitor, single point]	–
COc1ccc(S(=O)(=O)c2ccc(OC)c(OC)c2)cc1OC	inactive	–
Cc1noc(C)c1COc1ccc(C(=O)N2CCN(c3cccc(Cl)c3)CC2)cc1	inconclusive [inhibitor, single point]	–
CCOC(=O)NCc1ccc2[nH]c(C)cc2c1	inactive	–
CC(=O)NC/C(C)=N\Nc1ccc([N+](=O)[O-])cc1	inconclusive [inhibitor, partial curve]	–

SMILES	Potency	activity change, negative = growth inhibition
N#C/C(=N\Nc1cccc([N+](=O)[O-])c1)C(=O)c1ccc(Br)cc1	active: 5.8 µM	–
CCN1CC(CN(C)Cc2nc(-c3ccc(OC)c4ccccc34)oc2C)CC1=O (centres undefined)	inconclusive [inhibitor, single point]	–
CCC(C)(C)c1ccc(OCCCC[n+]2cccc(C)c2C)c(C(C)(C)CC)c1	active: 0.517 µM	–
Cc1ccc(N(CC(=O)Nc2ccc(Br)c(C)c2)S(=O)(=O)c2cccs2)cc1	inconclusive [inhibitor, single point]	–
CCn1c(SCC(=O)Nc2ccc(N(C)C)cc2)nnc1-c1cccc(C)c1	inactive	–
O=C(CCCc1ccccc1)c1ccccc1	inactive	–
COc1ccc(CN(C)CC2CCCN(CCc3ccc(Cl)cc3)C2)cc1OC (centres undefined)	inconclusive [inhibitor, single point]	–
O=C(NC1CCN(C(=O)Nc2cccc(F)c2)CC1)C1CCCCC1	inactive	–
CC(C)NC(=NCc1ccc(Cl)cc1Cl)Nc1ccccc1	active: 13 µM	–
ClCCn1c(CCl)nc2ccc(Cl)cc21	inconclusive [inhibitor, single point]	–
Cc1ccc(S(=O)(=O)N2CCCC2CNC(=O)C(=O)Nc2ccc(F)cc2)cc1 (centres undefined)	active: 20.6 µM	–
[O-][n+]1c2ccccc2cc2ccccc21	inconclusive [inhibitor, single point]	–
Nc1nc(-c2ccccc2)c(CCCNc2ccccc2)c(=O)[nH]1	inconclusive [inhibitor, partial curve]	–
OCCN1CCN(c2ncnc3c2ncn3[C@H]2CN(Cc3cccnc3)C[C@@H](CO)O2)CC1	inactive	–
Cc1c(Cl)cccc1N=C1SCCN1C(=O)CN1C(=O)NC2(CCCC2)C1=O	inconclusive [inhibitor, single point]	–
COc1ccccc1C(=O)NCCC(=O)Nc1ccc(S(=O)(=O)N2CCC(C)CC2)cc1	–	inconclusive: -30.5% [inhibitor]
COc1ccc(CN2C(=O)c3ccccc3C(/C=N\OCc3ccc(C)cc3)C2=O)cc1 (centres undefined)	active: 20.6 µM	–
O=C(N/N=C/c1c[nH]c2ccc(Br)cc12)c1ccncc1	inconclusive [inhibitor, single point]	–
Cc1nn(C)c(Nc2ccc(Br)cc2)c1Br	active: 14.6 µM	–
CCCCc1nc2ccccc2n1Cc1nnc2n1-c1ccccc1SC2	inconclusive [inhibitor, partial curve]	–
COc1ccc(-c2cn3nc(N4CCC(C(=O)Nc5cc(Cl)ccc5OC)CC4)sc3n2)cc1	inconclusive [inhibitor, full curve]	–
NC(=O)Cn1cc(/C=N\NS(=O)(=O)c2ccc(Cl)cc2)c2ccccc21	inactive	–
CC(C)(C)OC(=O)N1CCC(c2c(C(=O)N3CCN(c4ncccn4)CC3)cnn2-c2ccc(F)cc2F)CC1	inconclusive [inhibitor, single point]	–
COc1ccc(CCNC(=O)C(=O)NCC2OCCN2S(=O)(=O)c2ccc(F)cc2)cc1 (centres undefined)	–	inconclusive: -32.1% [inhibitor]
CCc1ccc(-c2cc(C)no2)cc1S(=O)(=O)N1CCN(c2ccc(C(C)=O)cc2)CC1	inconclusive [inhibitor, single point]	–

SMILES	Potency	activity change, negative = growth inhibition
COC(=O)c1ccc(NC(=O)CN(c2ccc3c(c2)OCO3)S(C)(=O)=O)cc1	inactive	–
Nc1c(C(=O)Nc2ccc(Cl)cc2F)sc2nc(-c3cccs3)ccc12	inconclusive [inhibitor, single point]	–
CCCOc1ccc(C2=CC(=O)C[C@H](c3ccc(OC)cc3)C2)cc1	inconclusive [inhibitor, single point]	–
Cc1cc(F)ccc1C(O)c1ncc(-c2cccc(OCc3ccccc3)c2)[nH]1 (centres undefined)	inconclusive [inhibitor, single point]	–
COc1ccc(-c2nc(SCC(=O)N3CCC(C)CC3)n[nH]2)cc1	inconclusive [inhibitor, single point]	–
Cc1cc(NC(=O)COc2c(C)cccc2C)no1	inconclusive [inhibitor, single point]	–
CCCn1c(Nc2cccc(OC)c2)nc2ccccc21	inconclusive [inhibitor, single point]	–
Cc1ccc(S(=O)(=O)N2CCC3(CC2)OCCN3S(=O)(=O)c2c(C)cc(C)cc2C)cc1	active: 25.9 µM	–
Cn1c(=O)c([N+](=O)[O-])c(-n2ccnc2)c2ccccc21	active: 4.61 µM	–
COc1cc(/C=C/C(=O)OCC(=O)Nc2c(C)n(C)n(-c3ccccc3)c2=O)cc(OC)c1OC	inactive	–
CCOC(=O)C(C)n1cnc2scc(-c3ccc(C)cc3)c2c1=O (centres undefined)	inactive	–
CN(CC(=O)NCc1ccc(F)cc1)S(=O)(=O)c1ccc2c(c1)c(=O)n(C)c(=O)n2C	inactive	–
COc1cc(/C=C2/SC(=O)N(Cc3ccccc3)C2=O)ccc1OCc1ccncc1	active: 16.4 µM	–
COc1ccccc1C(=O)NNC(=O)Cc1ccccc1	inactive	–
CCn1c(-c2csc3c2CCC(C)C3)n[nH]c1=S (centres undefined)	inconclusive [inhibitor, single point]	–
Cc1ccccc1C(=O)Nc1ccc2nc(SCCOc3ccccc3)sc2c1	inconclusive [inhibitor, partial curve, poor fit]	–
O=C(CN1CCN(C(=O)CNC(=O)c2ccc3c(c2)OCO3)CC1)Nc1ccc(F)cc1	inactive	–
COc1cc2c(cc1NC(=O)CN1CCN(S(=O)(=O)c3ccccc3F)CC1)oc1ccccc12	active: 14.6 µM	–
CC1=C/C(=N\N=C2\NC(=O)C(CC(=O)Nc3ccccc3)S2)CC(C)(C)C1 (centres undefined)	inconclusive [inhibitor, single point]	–
O=C(Cc1csc(N2CCOCC2)n1)N/N=C/c1ccc(Cl)cc1Cl	–	inconclusive: -36.4% [inhibitor]
COc1cccc(Nc2nc(-c3sc(NC(=O)c4ccco4)nc3C)cs2)c1	inconclusive [inhibitor, partial curve, poor fit]	–
COc1ccc2c(C)nc(Nc3nc(C)c(C)c(=O)[nH]3)nc2c1	active: 4.61 µM	–
CSc1ncccc1C(=O)OCC(=O)c1cccs1	inactive	–
COc1ccccc1C1c2c(-c3ccc(Cl)cc3)n[nH]c2C(=O)N1c1ccc(C)cc1 (centres undefined)	inconclusive [inhibitor, single point]	–
